# Laboratory results as given in the supplement of paper PMC11417369.
# Some of the results follow.
# Tested on: PfSIP2 AP2 domain 1 (GST-tagged)
# Test: gcPBM binding intensity (ln(normalized median fluorescence intensity)); higher = stronger DNA binding
# In short: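 For binding intensity, the highest Masliner-normalised natural-log median intensity across replicate spots of either probe orientation was taken. Protein bound to the array was stained with Alexa488 anti-GST antibody and scanned at 488 nm. The protein, GST-tagged P. falciparum DNA-binding domains from E. coli at about 25 μg on average, had been applied for 1 h to an Agilent 4 × 180k array of primer-extended double-stranded 36-bp intergenic genomic probes and negative controls.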
row,Sequence,gcPBM binding intensity (ln)
1,ACAAATAAATATATATGTACATATATTTTTTTATTT [XGTACX_site2989],7.14
2,TTTTATTTATATTATACACACAAGGAAAAAAAAAAA [CACACA_site7690],7.02
3,GATATGATTACCTTATGGTGTTTTTGATGGATAGTT [CACACA_negctrl_site1504],6.83
4,TTTTATTATTTATATACACACTTGCTGAAATGTTAT [CACACA_site5919],7.15
5,TATAATAATAATGATAGTACGTATGAGTTCAAAAAA [XGTACX_site608],6.96
6,TATATACAAATATGCTGTACAAAAAAAAAAAAAAAA [XGTACX_site4732],6.94
7,CGGTATTTTTTAATTTGTACGCATATACAATAATTA [XGTACX_site8603],7.5
8,TATTTATATTTATATACACACTATATAACTCAAACA [CACACA_site6611],7.05
9,AATTGTTCGATATATGCACACAGTTTTGTTATTTTT [CACACA_site1615],7.41
10,CTAGCAAATACATACACACACACACGGATACCTATA [CACACA_site7609],7.11
11,TATATAACTTTATTTTTCTTTACTTATTTTATTTTA [GTGCAC_negctrl_site66],6.96
12,TTTTTTAAAATATATATAATGAATTTTTTTTTTTTT [CACACA_negctrl_site1577],7.05
13,AAAGAAAAAAAAAAAAGTACATAAATATAAAAAGAA [XGTACX_site6753],7.25
14,ATATATATATATATATGTACATATTATTAATAATAT [XGTACX_site6667],9.4
15,GTATAATATGAACACACACACACACCCAAAAAAAAA [CACACA_site5152],7.35
16,TTATGGAACCCCATTCGTACATAAATATTTTATATA [XGTACX_site7112],6.73
17,ATACATATTAACAAGGTGCAAATGGATTTCATAAAA [GTGCAC_site9775],10.7
18,TTTTTTTTTTTGTGAGTGCACGTATGAAGAGAAAAA,10.8
19,TGAAACCATAAAGAATGTACACAGCGGTATAAGTTA [XGTACX_site674],6.87
20,TTAATATATTTAAATATATATAAAATATATAATATG [CACACA_negctrl_site880],6.89
21,AATAAAATAAGAAGCACACAAATATTATATATAAAA [CACACA_site3980],6.78
22,TTTTAAATAATACATACATGCATATATACACATATA [TGCATGCA_site8],6.99
23,TTTTGGAATTTTAGCTGTACTTTTCCTATTTTGTAT [XGTACX_site7679],6.81

row,Sequence,gcPBM binding intensity (ln)
1,TTCTTTTCTTCTACATGTACAAATATTATATATATA [XGTACX_site2996],8.04
2,TATATAACTGTCTTCACACACACATATAAATAAATA [CACACA_site7317],7.28
3,TATTTCACAACTTGTCGTACATTAATTGTATTATTT [XGTACX_site997],7.08
4,ATTATTATTAATAGTACACACTATGGCATTTCAATA [CACACA_site5388],7.02
5,TTAGGTGTATATAATTGTACATTTTGGAAATTATAC [XGTACX_site5492],7.08
6,ATCTTTCATCTACCAAGTACAAATTACTTTTTTTTT [XGTACX_site7001],7.08
7,TCTTATTTAAAAATAGCACACATTATGTATATATAT [CACACA_site2822],7.51
8,AGCTCGGAAAAATTAGCATGCAAAAAAAAAAAAAAA [TGCATGCA_site658],6.99
9,TATTTTAATTATAAATTTAAAAAAAAAAAGAAAAAA [CACACA_negctrl_site1674],6.93
10,TGCTTATATATACGTGCACACATATATATAAGATAT [CACACA_site8516],9.74
11,CTGGAGGATGAAAAAAGTACAAAAGGAGGAAATGTA [XGTACX_site8846],6.96
12,AGCTCATGCAGGTGTACACAAAAAGAAAAAAAATAA [CACACA_site4828],7.46
13,AAAACAAATATATTAACACACAAACATATAAACAAA [CACACA_site6052],7.03
14,ATAAATAATGTTGACACACACAATAATCTTATTATG [CACACA_site3593],7.01
15,ATGTCCTCAATGTTTACACACTCTTTTATATAAGTT [CACACA_site1460],7.34
16,CCCCATATAATGAACACACACACTCCTCATAATTAA [CACACA_site628],7.15
17,TATTAATTTATATCAACACACAAAATCAATATACTT [CACACA_site1757],6.95
18,TTCTATATTTTAGCTGATAATATTATGAGCTTCACT [XGTACX_negctrl_site427],6.81
19,AACATAAATATATATAGTACATATATATATATTCAA [XGTACX_site7287],7.06
20,AAGGAATAATATAAAACACACACATAAATATAAATA [CACACA_site9115],6.91
21,ATATAGATCAGACACACACACATGTTTTAAAACTAT [CACACA_site6186],7.16
22,CGAAATATTATGTACGCACACACATTTTTAATATAT [CACACA_site3852],7.34
